Source: PubChem BioAssay AID1963576 (National Center for Advancing Translational Sciences (NCATS), 2024)
About 60 (0.1%) of roughly 46,000 compounds were called active. Inconclusive results (about 3%) are left out. Calls come from the whole dose curve; as a rule, active = well fitted inhibition curve with a large enough effect; inconclusive = small, poorly fitted or top-dose-only effect; inactive = no such curve, though single readings can be large or run the other way. Some of the results follow.

Test: Primary qHTS assay for Inhibitors of ovarian cancer metastasis using an organotypic tumor microenvironment (TME) model.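 For activity change, negative = inhibition: plate controls were DMSO wells for no effect and tomatine positive control wells for full effect.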 Note: nearly all actives have a fitted effect of over 65% in size.
Details: SKOV3ip1-GFP adhesion/invasion on 3D omental model, fluorescence; series mostly up to 45.8 µM; activity change, negative = inhibition: at the top concentration
In short: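 Adhesion/invasion was scored as fixed GFP-labeled SKOV3ip1 cell counts (488/509 nm), normalized to DMSO and tomatine controls. Cancer cells in serum-free medium, with four compound doses (0.36-46 umol/L), sat 2 hr at RT then 16 hr at 37 C on a 48 hr fibroblast/mesothelial/ECM culture.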

Activity change, negative = inhibition, inactive:
CCc1nn(CCCC(=O)NCc2ccccc2Br)c(=O)c2cc3occc3n12 -15.2%, CC1CCN(S(=O)(=O)c2ccc3c(c2)N(CC(=O)NC(C)C)C(=O)CS3)CC1 10.4%, CCS(=O)(=O)N1N=C(c2ccc(C)cc2)CC1c1cc2ccc(OC)cc2nc1Cl (stereo not given) 7.98%, Cc1ccc(OCC(=O)NCC2(N3CCN(C)CC3)CCCCC2)cc1C 4.36%, CCCC(=O)N1c2ncnn2C2(CCCCC2)[C@@H]2CCCC[C@@H]21 -0.706%, CCCCOc1ccc(-c2nonc2NC(=O)c2ccco2)cc1 -1.57%, CN(C)c1ccc(CNc2nc(-c3ccco3)nn2S(=O)(=O)c2ccc3ccccc3c2)cc1 5.63%, O=C(CSc1nc2c(c(=O)[nH]1)CCC2)Nc1ccccc1F 16.9%, COc1ccc(NC(=O)Cn2cnc3sc(C)c(S(=O)(=O)N4CCN(C)CC4)c3c2=O)cc1OC -4.46%, Cc1ccc(C)c(NC(=O)Cn2cc(C(=O)c3ccncc3)c(=O)c3cc(F)ccc32)c1 -0.492%, COc1ccccc1CNc1ccc(-c2nc(C(C)C)no2)cc1[N+](=O)[O-] -1.39%, Cc1ccc(CCNC(=O)CN(c2ccc(C)cc2)S(=O)(=O)c2c(C)noc2C)cc1 8.83%, CC(C)CCOc1ccc(C(=O)Nc2sc3c(c2C#N)CCCCC3)cc1 -15.9%, CCc1cc(Nc2nccc(-c3c(-c4ccc(OC)c(C(=O)Nc5c(F)cccc5F)c4)nc4ccccn34)n2)c(OC)cc1N1CCC(N2CCN(S(C)(=O)=O)CC2)CC1 2.13%, O=C(Nc1ccc(F)cc1)[C@H](Cc1ccccc1)N1Cc2ccccc2C1=O -25.8%, CCOC(=O)C1CCN(C(c2ccccc2OC)c2c(O)cc(C)n(CCOC)c2=O)CC1 (stereo not given) 0.502%, COc1cccc(-c2nc(-c3ccc(-c4ccccc4)nc3OC)no2)c1 1.01%, Cc1ccccc1-c1nc(CNC(=O)Nc2ccccc2)c(C)o1 4.28%, Cc1ccccc1OCc1ccc(-c2nc(C#N)c(NCCCN(C)C)o2)o1 -1.32%, Cc1ccc(C(=O)Nc2ccc(Cl)c(-c3nc4ncccc4o3)c2)c(C)c1 7.17%, CCOc1ccc(C(=O)NCCn2cc(SCC(=O)NCCc3ccc(OC)c(OC)c3)c3ccccc32)cc1 -1.99%, O=C(Nc1ccccc1)c1cccc2c(=O)c3c([nH]c12)CCCC3 1.6%, Cc1ccc(-n2nc3c(N4CCC(C(=O)NC(C)C)CC4)nnc(C)c3c2C)cc1 9.5%, Cn1c(SCc2ccc(F)cc2)nc2ccc(C(=O)NCc3ccc(F)cc3)cc21 4.71%, CCN(CC)CCN(C(=O)c1ccco1)c1nc2ccc(Cl)cc2s1 -11.3%, Cc1cc(C)cc(NC(=O)c2cc(S(=O)(=O)N3CCCCCC3)cn2C)c1 10.6%, Nc1ccn([C@H]2CC[C@@H](CO)O2)c(=O)n1 -6.33%, Cc1ccc(C2Nc3ccccc3-n3c(-c4ccccc4)c4c(=O)n(C)c(=O)n(C)c4c32)o1 (stereo not given) -5.34%, Cc1ccc(NC(=O)Cn2c(-c3ccc4c(c3)OCO4)cn(-c3ccccc3)c2=O)cc1C -6.81%, COc1ccc(-c2nn(C)c3sc(C(=O)Nc4cccc(F)c4)cc23)cc1OC -34.6%, CCc1ccc(NC(=O)c2ccc3c(c2)nnn3CC)cc1 1.94%, CCOc1ccc(-c2nc(SC(C(C)=O)C(=O)N(C)C)c3c(=O)n(C)c(=O)n(C)c3n2)cc1 (stereo not given) 4.3%, CCN(CC)S(=O)(=O)c1ccc2c(c1)N(CC(=O)N1CCN(c3cccc(C(F)(F)F)c3)CC1)C(=O)CO2 3.73%, Cc1ccc2cc3cc(C(=O)Nc4ccc(F)cc4Cl)oc3nc2c1 0.588%, CO[C@H]1/C=C\O[C@@]2(C)Oc3c(C)c(O)c4c(O)c(c(C=NN5CCN(C6CCCC6)CC5)c(O)c4c3C2=O)NC(=O)C(C)=CC=C[C@H](C)[C@H](O)[C@@H](C)[C@@H](O)[C@@H](C)[C@H](OC(C)=O)[C@H]1C 4.64%, Cc1ccccc1OCC(=O)OCc1cc(=O)n2ccsc2n1 -3.18%, COCCNC(=O)CCc1nc2cccnc2n1Cc1ccc(OC)cc1 -11.9%, CCc1ccc(OC(C)C(=O)Nc2c(C(=O)c3ccccc3)oc3ccccc23)cc1 (stereo not given) 10.6%, COc1ccc(Cl)cc1NC(=O)c1cc2c(s1)-c1ccccc1OC2 -5.38%, COc1cccc(C2C(C(=O)Nc3ccccc3)=C(C)Nc3nc(-c4ccccc4)nn32)c1 (stereo not given) -3.83%, COc1ccc(OC)c(NC(=O)CSc2cn(CC(=O)N3CCOCC3)c3ccccc23)c1 -1.33%, Oc1c(Br)cc(Br)cc1-c1nc2ccccc2s1 -0.168%, Cc1ccc(-c2nc(CS(=O)CC(=O)N3CCN(c4ccccc4)CC3)c(C)o2)cc1 (stereo not given) 5.93%, CCCN(CCC)C(=O)C1CCCN(S(=O)(=O)c2ccc3c(c2)oc(=O)n3C)C1 (stereo not given) -16.3%, Cc1ccc(C(=O)c2oc3ccccc3c2NC(=O)c2cc(-c3ccccc3)on2)cc1F -0.114%, Cc1ccc(C)c(NC(=O)C2CCCN(S(=O)(=O)c3ccc4[nH]c(=O)ccc4c3)C2)c1 (stereo not given) -15.3%, CCN(CC)c1cc(C)c2cc(NC(=O)/C=C/c3ccc(C)cc3)ccc2n1 -19.8%, COc1ccc(NC(=O)[C@@H](c2ccccc2)N2Cc3ccccc3C2=O)cc1OC 49.2%, CC(=O)Nc1nonc1-c1nnc(SCC(=O)Nc2ccc(C)cc2C)n1C -7.17%, CCOc1ccc(CNC(=O)c2c(C)nn(-c3ccc(F)cc3)c2-n2cccc2)cc1 8.59%, Cc1noc(Cn2c(=O)c3cc4c(cc3n(CC(=O)Nc3cccc(Cl)c3)c2=O)OCO4)n1 -10.6%, Cc1ccc(-n2nc(C(=O)NCCN(C)C)c(=O)n(C)c2=O)cc1 -3.36%, Cc1ccc(CSCC(=O)N2CCN(c3cc(Cl)ccc3C)CC2)cc1 -5.07%, CC1CCc2c(sc(NC(=O)COc3ccccc3)c2C(=O)Nc2ccccc2Cl)C1 (stereo not given) 6.41%, CCOc1cccc2cc(-c3nnc(Nc4ccc(F)c(Cl)c4)s3)c(=O)oc12 4.61%, Cc1ccc(-c2nn(CC(=O)NC3CCCCC3)c3c2cnc2ccc(F)cc23)cc1C -7.24%, Cn1c(=O)[nH]c(=O)c2c1nc1n(CCO)c(-c3ccccc3)cn21 16.7%, O=C(CSc1nc2c(cnn2-c2ccc(F)cc2)c(=O)[nH]1)Nc1ccc(Br)cc1 -7.13%, COc1cccc(NC(=O)CC2C(=O)OCCN2Cc2ccccc2)c1 (stereo not given) 18.2%, COc1cccc(-c2cc(=O)c3ccccc3o2)c1N -16.2%, Cc1ccc2oc(C(=O)N(Cc3ccccc3F)C3CCS(=O)(=O)C3)c(C)c2c1 (stereo not given) -6.04%, Cc1[nH]c2ccccc2c1C(=O)C(=O)NC1CC(=O)N(c2cccc(F)c2)C1 (stereo not given) -2.11%, COc1ccc(C2C(C(N)=O)=C(C)Nc3nc(-c4ccccc4Cl)nn32)cc1 (stereo not given) 20.5%, Cc1ccc(Cl)cc1NC(=O)CN(C)S(=O)(=O)c1ccc2c(c1)n(C)c(=O)c(=O)n2C -7.02%, Cc1cccc(C)c1Nc1c(-c2ccc(Cl)s2)nc2ncccn12 -18.1%, CC(C)C(=O)OC1=CN(Cc2ccccc2)S(=O)(=O)c2ccccc21 6.43%, COc1ccccc1CNC(=O)c1ccc2c(c1)sc1nc(-c3ccc(F)cc3)cn12 3.01%, COc1ccc(CCNC(=O)c2cc(-c3ccccc3)nc3ccccc23)cc1OC 58.2%, CC(C)c1nnc(N2C(=O)c3oc4ccccc4c(=O)c3C2c2cccc(O)c2)s1 (stereo not given) 12.4%, O=C(CSc1cn(CC(=O)N2CCCCCC2)c2ccccc12)Nc1ccccc1F -16%

outcome, inactive:
Cc1ccc(Cn2cccc2C2=NC(C)(C)CO2)cc1, COc1ccccc1OC(C)C(=O)NCC1(N2CCOCC2)CCCCC1 (stereo not given), COc1ccc(NC(=O)CCNS(=O)(=O)c2cccc3nonc23)cc1, CCOc1ccc(CNC(=O)c2cc3oc4ccccc4c3n2C)cc1, Cc1c(Cl)ccc2sc(N3CCN(C(=O)c4ccco4)CC3)nc12, COC(=O)c1ccc(Nc2ncnc3c2nc2n3CCCC2)cc1, CCOc1ccccc1NC(=O)C1CCN(S(=O)(=O)c2c(C)noc2/C=C/c2ccc(C)cc2)CC1, COc1ccccc1-c1nc(-c2ccc(Br)o2)no1, Cc1cccc(-n2c(SCC(N)=O)nc3c(oc4ccccc43)c2=O)c1, CCOC(=O)N1CCN(C(=O)CN(c2cccc(Cl)c2C)S(=O)(=O)c2ccc(C)cc2)CC1, COc1ccc(Cl)cc1NC(=O)Cn1ccn(Cc2ccc(C)cc2)c(=O)c1=O, O=C(c1cc2c(=O)oc3ccccc3c2s1)N1CCN(c2cccc(Cl)c2)CC1, COc1ccccc1OCCn1cc(C(=O)c2cccs2)c2ccccc21, Cc1nn(CC(=O)NC2CC2)c(=O)c2cc3ccccc3n12, COCCn1c(SCC(=O)c2cc(C)ccc2C)nc2cc(C(=O)NC3CCCC3)ccc2c1=O, CCC1CN(C(=O)N2CCC(C(=O)NCc3ccc(OC)cc3OC)CC2)c2cc(C)ccc2O1 (stereo not given), Cc1c(Cl)cccc1-n1ncc(C(=O)Nc2ccc3c(c2)OCCO3)c1C1CCN(C(=O)OC(C)(C)C)CC1, CS(=O)(=O)N(CC(=O)NCCSc1ccccc1)c1cc(C(F)(F)F)ccc1Cl, COc1ccc(-c2noc(-c3ccc(NC4CCCC4)c([N+](=O)[O-])c3)n2)cc1, O=C(c1ccccc1)c1ccccc1NC(=O)c1ccccc1C(=O)O, CC(=O)c1ccc(N2CCN(C(=O)c3cc4cc5cc(C)ccc5nc4s3)CC2)cc1, CCCCOc1ccc(-c2cc3c(=O)n(CC(=O)Nc4ccc(Cl)cc4Cl)ccn3n2)cc1, COc1cccc(CNC(=O)c2cc(=O)[nH]c3ccc(S(=O)(=O)N4CCCCC4)cc23)c1, CCn1cc(C(=O)OCC(=O)Nc2cc(C)cc(C)c2)c(=O)c2ccc(C)nc21, COC(=O)c1scc(-c2ccc(C)cc2)c1S(=O)(=O)Nc1cccc(C(F)(F)F)c1
